Source: PubChem BioAssay AID504333 (National Center for Advancing Translational Sciences (NCATS), 2011)
“And” between values parts separate entries of the source, which are not always exact repeats. Equal entries are not always repeated. The campaign covered roughly 360,000 compounds. About 16,000 (4.4%) were called active. This list was built around the results that the source calls inconclusive (neither active nor inactive); the mix of calls is not that of the screen. Calls come from the whole dose curve; as a rule, active = well fitted inhibition curve with a large enough effect; inconclusive = small, poorly fitted or top-dose-only effect; inactive = no such curve, though single readings can be large or run the other way. Potencies beside an inconclusive call are fits to weak or partial responses and may not hold up.

These compounds were tested against Bromodomain adjacent to zinc finger domain protein 2B (Homo sapiens) (UniProt Q9UIF8) (assay: qHTS Assay for Inhibitors of BAZ2B). Details: AlphaScreen BAZ2B-H3K14Ac peptide displacement; activity change, negative = inhibition: at 114 µM (top of the series) unless noted.
Summary of the method: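 Complex of BAZ2B and biotin-H3K14Ac (50 nM apiece) forms over 30 min at RT, then faces library compounds up to 110 uM for another 30 min; AlphaScreen beads added, 20 min dark incubation, luminescence read.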
% is set by controls: 0 for no effect and ±100 for the full control effect; potency is the fitted concentration of half-maximal effect; tags give direction and shape of the fitted curve.
Note: nearly all actives have a fitted effect of over 60% in size.

Chain of UniProt Q9UIF8 (Q9UIF8 whole entry, looked up, the tested form may be a part): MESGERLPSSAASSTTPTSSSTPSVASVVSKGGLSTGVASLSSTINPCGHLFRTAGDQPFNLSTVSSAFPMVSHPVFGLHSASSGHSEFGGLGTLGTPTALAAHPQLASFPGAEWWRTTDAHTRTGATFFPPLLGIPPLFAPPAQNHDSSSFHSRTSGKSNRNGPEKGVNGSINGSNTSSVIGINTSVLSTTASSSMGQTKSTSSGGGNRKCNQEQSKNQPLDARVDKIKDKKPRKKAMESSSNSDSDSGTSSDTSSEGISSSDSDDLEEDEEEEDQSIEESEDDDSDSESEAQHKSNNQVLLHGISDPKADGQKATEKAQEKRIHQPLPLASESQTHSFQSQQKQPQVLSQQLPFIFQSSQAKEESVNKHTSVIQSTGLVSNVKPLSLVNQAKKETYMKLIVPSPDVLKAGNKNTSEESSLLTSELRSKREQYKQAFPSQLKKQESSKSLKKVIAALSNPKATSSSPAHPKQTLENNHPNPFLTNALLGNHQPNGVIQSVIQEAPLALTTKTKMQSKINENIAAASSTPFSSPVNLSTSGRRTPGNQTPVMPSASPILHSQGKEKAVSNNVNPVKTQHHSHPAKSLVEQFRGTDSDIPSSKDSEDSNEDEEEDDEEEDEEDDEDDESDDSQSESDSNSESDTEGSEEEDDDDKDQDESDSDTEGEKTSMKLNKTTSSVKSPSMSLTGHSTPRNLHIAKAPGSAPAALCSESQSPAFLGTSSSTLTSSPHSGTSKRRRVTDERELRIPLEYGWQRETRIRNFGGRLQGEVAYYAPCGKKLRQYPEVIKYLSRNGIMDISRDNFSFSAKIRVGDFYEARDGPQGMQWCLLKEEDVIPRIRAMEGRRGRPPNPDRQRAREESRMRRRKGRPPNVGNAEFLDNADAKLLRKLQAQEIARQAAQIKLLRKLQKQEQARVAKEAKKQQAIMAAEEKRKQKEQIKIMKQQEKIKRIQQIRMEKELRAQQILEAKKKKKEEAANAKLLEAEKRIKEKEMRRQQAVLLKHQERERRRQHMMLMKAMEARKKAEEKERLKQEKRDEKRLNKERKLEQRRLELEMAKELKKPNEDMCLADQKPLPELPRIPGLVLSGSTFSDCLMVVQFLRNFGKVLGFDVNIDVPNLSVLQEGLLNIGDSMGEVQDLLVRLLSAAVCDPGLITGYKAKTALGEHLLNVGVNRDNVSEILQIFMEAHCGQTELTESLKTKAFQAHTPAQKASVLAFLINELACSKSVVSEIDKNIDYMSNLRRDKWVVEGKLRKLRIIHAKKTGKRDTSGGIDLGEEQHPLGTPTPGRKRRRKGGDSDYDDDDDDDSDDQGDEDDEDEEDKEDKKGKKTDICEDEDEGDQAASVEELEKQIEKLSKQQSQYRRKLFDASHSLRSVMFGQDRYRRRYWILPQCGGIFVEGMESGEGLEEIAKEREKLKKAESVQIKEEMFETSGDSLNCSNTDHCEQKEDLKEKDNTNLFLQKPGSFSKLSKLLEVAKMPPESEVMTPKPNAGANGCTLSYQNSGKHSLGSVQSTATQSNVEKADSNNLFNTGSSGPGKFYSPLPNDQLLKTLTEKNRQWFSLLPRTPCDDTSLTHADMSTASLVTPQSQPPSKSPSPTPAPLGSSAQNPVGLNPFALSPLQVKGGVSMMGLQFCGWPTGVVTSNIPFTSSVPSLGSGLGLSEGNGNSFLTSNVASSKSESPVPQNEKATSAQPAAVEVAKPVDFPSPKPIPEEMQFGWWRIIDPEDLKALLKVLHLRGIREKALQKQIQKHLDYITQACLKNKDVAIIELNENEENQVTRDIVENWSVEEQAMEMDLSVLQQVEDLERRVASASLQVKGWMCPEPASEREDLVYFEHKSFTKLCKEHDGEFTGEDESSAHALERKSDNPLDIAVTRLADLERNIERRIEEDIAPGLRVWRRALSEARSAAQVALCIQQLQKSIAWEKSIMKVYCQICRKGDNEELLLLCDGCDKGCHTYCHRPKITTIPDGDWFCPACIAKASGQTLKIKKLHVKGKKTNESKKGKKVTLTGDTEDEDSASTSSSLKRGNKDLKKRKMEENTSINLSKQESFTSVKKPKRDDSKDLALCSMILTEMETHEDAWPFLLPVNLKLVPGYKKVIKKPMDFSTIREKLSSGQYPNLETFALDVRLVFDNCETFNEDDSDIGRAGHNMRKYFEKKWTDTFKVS

Structure (SMILES)	Potency	activity change, negative = inhibition
CC(C)N1C(=O)C(Cc2nc3ccccc3c(=O)n2-c2ccccc2)c2ccccc21 (stereo not drawn)	inconclusive: 89.1 µM [inhibitor, single point]	–
CC(C)N(CCC(=O)c1ccc2ccccc2c1)Cc1ccccc1	–	inactive: 16.7%
Cc1nc(CSc2nsc(/C=C/N(C)C)c2C#N)cs1	active: 39.8 µM	–
S=C(NC1CCCCC1)N1CCn2cccc2C1c1ccncc1 (stereo not drawn)	active: 50.1 µM	–
CCOC(=O)c1c(NC(=O)/C=C/C(=O)O)sc(C)c1-c1ccc(Cl)cc1	inconclusive: 79.4 µM [inhibitor, partial curve]	–
CCNC(=S)N(CCc1c(C)[nH]c2ccccc12)Cc1cc(OC)c(OC)c(OC)c1	active: 50.1 µM	–
COc1ccc2c(c1OC)C(=O)OC2CC(=O)c1ccc(O)c(O)c1 (stereo not drawn)	inconclusive: 0.631 µM [inhibitor, full curve, poor fit]	–
Cc1cccc(-n2ncc3c(=O)[nH]c(SCC(=O)N4CC(=O)Nc5ccccc54)nc32)c1	–	inactive: 10%
C=CCNC(=S)N/N=C(\C)c1ccccn1	active: 4.47 µM	–
CCOc1ccc(S(=O)(=O)Nc2ccccc2C(=O)NCc2ccco2)cc1	inconclusive: 70.8 µM [inhibitor, single point]	–
COc1ccccc1N1CCN(Cc2cc3c(cc2Br)OCCO3)CC1	inconclusive: 50.1 µM [inhibitor, partial curve]	–
Cc1cc2cc3c(cc2nc1SCc1ccc(C(=O)O)cc1)OCCO3	inconclusive: 89.1 µM [inhibitor, single point]	–
Cc1ccc(-c2nn(-c3ccccc3)cc2C2CC(c3cccs3)=NN2C(=O)CCC(=O)O)cc1 (stereo not drawn)	inconclusive: 89.1 µM [inhibitor, single point]	–
Cc1c(OC(C)C(=O)NCCCN2CCCC2=O)ccc2c3c(c(=O)oc12)CCCC3 (stereo not drawn)	–	inactive: -24.4%
Clc1ccc(Oc2ccccc2)c2ncccc12	–	inactive: 32.7%
CN(C)c1ccc(CNC(=O)CCS(=O)(=O)c2ccc3c(c2)n(C)c(=O)c(=O)n3C)cc1	inconclusive: 50.1 µM [inhibitor, partial curve]	–
O=C(CN1CCSCC1)N/N=C/c1cccc(Cl)c1	active: 50.1 µM	–
Cc1nnc(SCC2=C(C(=O)O)N3C(=O)C(NC(=O)Cc4ccccc4)C3SC2)s1 (stereo not drawn)	inconclusive: 89.1 µM [inhibitor, single point]	–
CC(=O)Nc1ccc(S(=O)(=O)N2CCC(C(=O)NCCC(=O)Nc3nccs3)CC2)cc1	–	inactive: -9.28%
CCN(CC)S(=O)(=O)c1ccc2c(c1)nc(SCC(N)=O)n2-c1ccc(OC)cc1	inconclusive: 89.1 µM [inhibitor, single point]	–
O=C(CCCCn1c(=O)c2ccccc2n(CC(=O)NC2CCCC2)c1=O)NCc1ccco1	inconclusive: 3.98 µM [inhibitor, full curve]	–
COc1ccc(N2CCN(C(=O)CCC(=O)N3CC(C)Oc4ccccc43)CC2)cc1 (stereo not drawn)	inconclusive: 89.1 µM [inhibitor, single point]	–
O=C(CSc1ccc2c(c1)OCCO2)NCc1ccco1	inconclusive: 56.2 µM [inhibitor, partial curve]	–
Cc1ccc(S(=O)(=O)Nc2c(C(=O)O)[nH]c3ccccc23)cc1C	inconclusive: 44.7 µM [inhibitor, partial curve]	–
CN1CCN(C(=O)c2ccc3c(=O)n(Cc4ccco4)c(=S)[nH]c3c2)CC1	–	inactive: -5.07%

Structure (SMILES)	Potency	activity change, negative = inhibition
COc1ccc([N+](=O)[O-])cc1NC(=O)CCS(=O)(=O)c1ccc(Br)cc1	active: 50.1 µM	–
Cc1ccc(CN2C(=O)C(C)Nc3ncnc(N4CCN(c5ccccn5)CC4)c32)cc1 (stereo not drawn)	inconclusive: 89.1 µM [inhibitor, single point]	–
C/C(=N\Nc1nc(C)cc(-c2ccccc2)n1)c1ccc(C)o1	inconclusive: 56.2 µM [inhibitor, partial curve]	–
CC1CCN(c2c([N+](=O)[O-])nn(-c3ccc4c(c3)OCCO4)[n+]2[O-])CC1	active: 22.4 µM	–
O=C(CN1C(=O)COc2ccc(S(=O)(=O)N3CCCC3)cc21)NCc1ccccn1	–	inactive: 1.03%
O=C(Nc1nc(-c2ccccc2)cs1)c1cccc(S(=O)(=O)N2CCN(Cc3ccccc3)CC2)c1	inconclusive: 12.6 µM [inhibitor, full curve]	–
COC(=O)c1c(C)[nH]c(C)c1-c1ccccc1Cl	inconclusive: 79.4 µM [inhibitor, single point]	–
Cc1ccccc1C(=O)Nc1ccc2c(c1)CCCN2C(=O)c1cccs1	inconclusive: 79.4 µM [inhibitor, single point] and inconclusive: 70.8 µM [inhibitor, single point]	–
COc1ccccc1CNC(=O)c1cnc2sc(N3CCCCCC3)nn2c1=O	–	inactive: -9.21%
O=C(CSc1nnc2ccc3ccccc3n12)c1ccc(F)cc1	inconclusive: 70.8 µM [inhibitor, partial curve]	–
O=C(COc1ccc(Br)cc1)NCCCn1ccnc1	active: 56.2 µM	–
CCSC1=C(C#N)C(c2ccc3c(c2)OCO3)C2=C(CCCC2=O)N1 (stereo not drawn)	inconclusive: 35.5 µM [inhibitor, single point]	–
Cc1cc(=O)[nH]c(N/N=C/c2ccc(-c3ccc([N+](=O)[O-])cc3)o2)n1	–	inactive: -1.94%
CCOC(=O)c1ccccc1-c1cn2cc(Cl)ccc2n1	–	inactive: -18.1%
Cc1ccccc1S(=O)(=O)Nc1ncc(C(F)(F)F)cc1Cl	inconclusive: 79.4 µM [inhibitor, single point]	–
COc1cc(C2C(C(=O)c3ccc(C)o3)=C(O)C(=O)N2Cc2cccnc2)ccc1O (stereo not drawn)	active: 56.2 µM	–
COC(=O)c1cc(-c2ccc(OC)c(OC)c2)c2c(=O)[nH]c(=O)n(C)c2n1	inactive	–
CN1CCN(c2ccc(NC(=S)NC(=O)c3cccc4c(Cl)cccc34)cc2)CC1	inconclusive: 8.91 µM [inhibitor, full curve]	–
CCC(CC)c1nnc(NC(=O)c2cc([N+](=O)[O-])ccc2N2CCCCC2)s1	inconclusive: 31.6 µM [inhibitor, partial curve]	–
Cc1cc(C(=O)OCC(=O)NCc2ccc(Cl)cc2)c(C)o1	–	inactive: -1.96%
O=c1/c(=C/c2ccc(O)c([N+](=O)[O-])c2)sc2nc3ccccc3n12	inconclusive: 8.91 µM [inhibitor, full curve, poor fit]	–
CCOC(=O)c1cnc2c(ccc3ccccc32)c1Nc1ccc(Cl)cc1	–	inactive: -1.93%
CCOCCCn1c(=N)c(C(N)=S)cc2c(=O)n3cccc(C)c3nc21	inconclusive: 79.4 µM [inhibitor, single point]	–
Cc1ccc(NC(=O)CS(=O)CC(=O)Nc2ccc(N3CCOCC3)cc2)cc1Cl (stereo not drawn)	inconclusive: 79.4 µM [inhibitor, single point]	–
Cc1cc(Oc2ccc(=O)n(C)n2)nc(Oc2ccc(=O)n(C)n2)n1	–	inactive: 5.99%

Structure (SMILES)	Potency	activity change, negative = inhibition
O=C(O)/C=C/C(=O)c1ccc2c(c1)CCc1ccccc1-2	inconclusive: 89.1 µM [inhibitor, single point]	–
COc1ccc(N2CCC(CNC(=O)Nc3cccc(OC)c3)C2)cc1 (stereo not drawn)	active: 31.6 µM	–
CCOc1ccc(CCNC(=O)c2cc3sccc3n2C)cc1OCC	inconclusive: 39.8 µM [inhibitor, partial curve]	–
Cc1ccc(-n2ncc3c(Nc4ccccc4C)ncnc32)cc1	–	inactive: 0.778%
COc1cccc(/C=N/NC(=O)C(=O)Nc2ccccc2OC(F)(F)C(F)F)c1O	–	inactive: -3.2%
COc1cccc(Cn2c(NCc3ccc(C)cc3)nc3c2c(=O)n(C)c(=O)n3C)c1	–	inactive: 1.87%
CC1CN(C(=O)Nc2ccc(F)cc2)C2(CCCCCC2)O1 (stereo not drawn)	–	inactive: 0.949%
Cc1c(C(=O)CN2CCN(c3ccccc3)CC2)c2ccccc2n1C	inconclusive: 50.1 µM [inhibitor, partial curve]	–
N#C/C(=C/c1ccco1)C(N)=S	inconclusive: 56.2 µM [inhibitor, partial curve]	–
CCN1CCCc2cc(CN(CCN3CCOCC3)C(=S)Nc3cccc(Cl)c3)ccc21	active: 7.08 µM	–
Cc1cc(OCCOCCNCc2ccccc2)ccc1C(C)C	inconclusive: 89.1 µM [inhibitor, single point]	–
COCC(C)NCc1ccc(OC)c(Br)c1 (stereo not drawn)	active: 50.1 µM	–
O=S1(=O)N[C@@H](CC2=CCCCC2)C2CCCCC2O1 (stereo partly drawn)	–	inactive: 12.4%
Cc1ccc2[nH]cc(CCNC(=O)C3CCCO3)c2c1 (stereo not drawn)	inconclusive: 89.1 µM [inhibitor, single point]	–
CC1CCCCC1NC(=O)C1Cc2ccccc2CN1S(C)(=O)=O (stereo not drawn)	–	inactive: 7.77%
Oc1cc(NCCc2cccnc2)cc2cccnc12	active: 5.62 µM	–
Cc1ccc(O)c(C(=O)c2cc(C#N)c(=O)n(Cc3ccccc3)c2)c1	inconclusive: 79.4 µM [inhibitor, single point]	–
Cc1c(C)c2cc(Cl)c(OCc3nn[nH]n3)cc2oc1=O	inconclusive: 89.1 µM [inhibitor, single point]	–
COc1ccc(Cc2nnc(NC(=O)Cc3cccs3)s2)cc1	active: 44.7 µM	–
COc1ccc(Cl)c(Cn2c(NCc3ccco3)nc3c2c(=O)n(C)c(=O)n3C)c1	inconclusive: 17.8 µM [inhibitor, full curve]	–
COc1ccc(C)cc1NC(=S)NNC(=O)c1c(Br)cnn1C	inconclusive: 56.2 µM [inhibitor, partial curve]	–
CCNc1ccc(-c2nc(-c3ccco3)no2)cc1[N+](=O)[O-]	–	inactive: -5.83%
CN(C)S(=O)(=O)n1cc(/C=C(\NC(=O)c2ccccc2)C(=O)NCCCn2ccnc2)c2ccccc21	inconclusive: 50.1 µM [inhibitor, partial curve] and inconclusive: 56.2 µM [inhibitor, partial curve]	–
